Test results from publication PMC5429092 (2017).

Columns and labels:
[1] = biological target: T1, biotinylated human PPP1R15A^533-624 (AviTag-PPP1R15A 533-624-MBP) (human, UniProt O75807 in part, biotin on a single lysine residue of the AviTag); test: BLI
[2] = biological target: biotinylated human PPP1R15A^(533-624)W582A (human, UniProt O75807 in part, W582A, biotin on the AviTag); test: BLI
[3] = biological target: biotinylated human PPP1R15A^(533-624)F592A (human, UniProt O75807 in part, F592A, biotin on the AviTag); test: BLI
[4] = biological target: biotinylated human PPP1R15A^(533-624)R578A (human, UniProt O75807 in part, R578A, biotin on the AviTag); test: BLI
[5] = biological target: T1, biotinylated human PPP1R15A^533-624 …; test: BLI; Sephin1 50 uM

- Kd [1]: 17 nM
- Kd [2]: 13.7 nM
- Kd [3]: 20.8 nM
- Kd [4]: 15.6 nM
- Kd [5]: 18.2 nM
B1: PP1 (PP1G […], full-length PP1 phosphatase catalytic subunit) (enzyme)
chain: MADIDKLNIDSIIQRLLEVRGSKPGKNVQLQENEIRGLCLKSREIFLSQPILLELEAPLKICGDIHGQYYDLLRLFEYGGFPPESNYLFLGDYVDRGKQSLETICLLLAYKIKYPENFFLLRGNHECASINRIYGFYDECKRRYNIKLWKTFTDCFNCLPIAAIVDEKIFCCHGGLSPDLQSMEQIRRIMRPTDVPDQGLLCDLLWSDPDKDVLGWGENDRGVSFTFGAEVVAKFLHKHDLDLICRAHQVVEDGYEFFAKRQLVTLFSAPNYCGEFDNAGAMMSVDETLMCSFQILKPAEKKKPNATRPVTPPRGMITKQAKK
